The list shows a part of the results. At the low end of the ranking the order means little. Measured with an extract: partners may take part in the binding.

The target in this assay is T1, HNF4alpha8 (COS-7 nuclear extract) (UniProt P41235-5).
T1 sequence: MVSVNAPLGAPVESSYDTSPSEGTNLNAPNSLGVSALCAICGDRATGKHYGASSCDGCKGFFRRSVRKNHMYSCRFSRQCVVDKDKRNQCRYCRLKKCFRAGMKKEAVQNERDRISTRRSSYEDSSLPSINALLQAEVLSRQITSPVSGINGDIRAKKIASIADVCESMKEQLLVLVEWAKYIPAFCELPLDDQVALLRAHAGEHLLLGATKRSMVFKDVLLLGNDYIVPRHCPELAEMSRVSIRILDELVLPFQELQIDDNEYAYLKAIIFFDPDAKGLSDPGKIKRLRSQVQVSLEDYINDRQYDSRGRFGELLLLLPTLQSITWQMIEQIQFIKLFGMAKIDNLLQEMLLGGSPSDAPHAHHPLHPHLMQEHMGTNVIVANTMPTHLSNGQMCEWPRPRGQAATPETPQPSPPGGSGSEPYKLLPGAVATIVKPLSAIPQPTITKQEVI
Nature of the assay: protein-binding microarray. To be noted: COS-7 nuclear extract on double-stranded Agilent 4x180k PBM; binding buffer, salt, pH and temperature not given; high values mean tight binding; double strand, one strand shown; sequences stand for … in …GCCTAGGGAGATTAGAGTATCGGTCGA
For the sequence GTCAAGCAATGATCTTCATGAACTTCTGTC, the binding signal (log2 normalized intensity) worked out at 1.37.

Regarding CCACAAGGGTTTAAATCTGACTGCACTGCA, the binding signal (log2 normalized intensity) is -1.23.

As for TCACCAGCTAAGCTGTTACTCATTCCCAGG, the binding signal (log2 normalized intensity) was -1.31.

As to CCAAAGTCCATGCTATTAAGCACTAGAAAG, the binding signal (log2 normalized intensity) is -1.3.

For the sequence ATTCTGCATTTTTCTTTCCTGTAAATAATT, the binding signal (log2 normalized intensity) is 0.347.

Turning to AGGCAGAGAGGCTGCTCAGTTTAAGTCAAA, the binding signal (log2 normalized intensity) is -1.26.

With TAAGCAGAGGATGGGAATTAGGGAGTAGGG, the binding signal (log2 normalized intensity) was -1.4.

In the case of GGCAATTGTGTTTGTCTTAGGGGGTCTGGT, the binding signal (log2 normalized intensity) is 0.75.

For CAGGGGAATGGAGACACACCTGCGGTGACT, the binding signal (log2 normalized intensity) is -1.36.

As to AACTTTTCCATGTCCAAAGGTCTTCATGAG, the binding signal (log2 normalized intensity) came to 4.33.

Consider GTCAGAACTGTGGACTCGCTGCCTTTTATC, for which the binding signal (log2 normalized intensity) was found to be 1.03.

Turning to CCTACGCTACGCACCAGGCATACTCCTCCT, the binding signal (log2 normalized intensity) is -1.27.

Consider AGATAAGACAAGCTCTGTTTGTTTTGTTAC, for which the binding signal (log2 normalized intensity) amounted to 1.26.

AAGCTGCTGCCAAGCGTCAGTCATACAGAG: the binding signal (log2 normalized intensity) is -1.43.

CCTTTCGGTGGGACTAAATTCTGCGGCGGA: the binding signal (log2 normalized intensity) is -0.776.

Regarding GAGTGCCCTTGCCGAGAGCGGCTCGTTGGT, the binding signal (log2 normalized intensity) was -1.

Take TTTGTATGGCAGGGGTTAACCTCTATTGAC: the binding signal (log2 normalized intensity) came to 2.29.

AATCTCCAACAAGGCAGGAGATTCCACATT: the binding signal (log2 normalized intensity) is -1.27.

Turning to CCTGAGAGGCCAGTTTGACCTTTGCATTCT, the binding signal (log2 normalized intensity) amounted to 8.31.

Regarding TTGCCCACATTCACACAATCAGTGTGTTGA, the binding signal (log2 normalized intensity) is 0.225.

TCTACCTTTGGCCTGGGGATTTACTAAAGT: the binding signal (log2 normalized intensity) amounted to 0.709.

CACACTGTTTGCGCAAACTATCTAAACAGA: the binding signal (log2 normalized intensity) is -1.35.

Regarding GTAACAAAGGAAAGAGCTAACATATACCAT, the binding signal (log2 normalized intensity) is -1.15.

Regarding AGTGAGCCAAGGTACCCTGGCTTGTAATTC, the binding signal (log2 normalized intensity) was -0.844.

Regarding CCCCCTCCTCACCCCACTTTGGTTCACCGC, the binding signal (log2 normalized intensity) worked out at 4.2.

For the sequence CCCTATTTCCCTCTGTGCCCGAGCTGTCTT, the binding signal (log2 normalized intensity) was found to be 1.43.

With TCCTGAAGCCCTTCTTCTGGAGCCTCAGTA, the binding signal (log2 normalized intensity) was -1.37.

Take GGTTTTTGTCAAAGATAGTTGTAGTTACAG: the binding signal (log2 normalized intensity) came to 1.26.

As to AGGCAAGGAATTTGGAATTCCCTGCAAGGA, the binding signal (log2 normalized intensity) was -1.43.

As for ATAGAGGAGTCAAGCAAACACACTTGCTCT, the binding signal (log2 normalized intensity) is -1.43.

Consider GTGGGGACCTGGACTCCCAAGATGGATTGG, for which the binding signal (log2 normalized intensity) stood at 0.874.

For the sequence TGTGGGTGAGGCTGTGATGTTTGCCCATGA, the binding signal (log2 normalized intensity) was found to be 0.65.

In the case of CGTCTAAACAAACTCCCAGTCTGTTATCAG, the binding signal (log2 normalized intensity) was -1.04.

For the sequence GTACAAACACATACCTTAAATAAGAGACTC, the binding signal (log2 normalized intensity) was -1.37.

As to AAAGTTCATCTGGGCTTTAGGTTTGGTGTT, the binding signal (log2 normalized intensity) was 1.8.

Turning to TCAAGGGTCATTTGTTTTTACAGACAGGCA, the binding signal (log2 normalized intensity) came out at 1.61.

For GCCTGGCCAAGTTGAGGAGTTTGTACTTTA, the binding signal (log2 normalized intensity) is 3.71.

Consider GGGCGCTGTCCGCCGCCTCGTGGTGCTGAT, for which the binding signal (log2 normalized intensity) is -1.26.

Turning to CGCTGTAGAAAGTGGTTTCAAGGTGACCCC, the binding signal (log2 normalized intensity) came out at 6.38.

Take AAGGTCAGGGGCAGGGTCGCGCGGGCTGCT: the binding signal (log2 normalized intensity) was -1.31.

Regarding TTAAAGGATATCATCAGTGCCATTCATTAG, the binding signal (log2 normalized intensity) is -1.16.

Regarding AAATACATTCTGAACCAATGCCACAGAAAA, the binding signal (log2 normalized intensity) was -1.31.

Take GTCCCTGGGGACAGGGATTAAGTACCGCTC: the binding signal (log2 normalized intensity) was -1.

Take TGACATCCCTATGTTGTCCCTGCCCTTTGT: the binding signal (log2 normalized intensity) stood at 4.34.

For the sequence ATCTCTGTCCCTGATACCATTATCTCCAGC, the binding signal (log2 normalized intensity) is -1.23.

Consider AGAGAAATGAGGCACAGTAACCTGACCCCC, for which the binding signal (log2 normalized intensity) stood at 5.88.

With AAGGTAAATATTGTCAGTGAGGAATGTGCA, the binding signal (log2 normalized intensity) was 0.658.

For the sequence GTGGGGGTGGAGGCAGCAGCTCCAATTAGG, the binding signal (log2 normalized intensity) is -1.28.

In the case of GGAGACCCATGGCAGAGGCTGTACTCCTCA, the binding signal (log2 normalized intensity) was -1.34.

For GCTGGAAAGGCCACCACAAACCCTTCATCC, the binding signal (log2 normalized intensity) was -1.35.

Regarding GGCACAGGTCAAAAATGATGCCTGACTCAA, the binding signal (log2 normalized intensity) is -1.35.

Consider CCTTTGAGGAGGCCTTTCCTGACCCCTCCT, for which the binding signal (log2 normalized intensity) stood at 4.78.

With AGAGCAGCTAGTAGGAGCGGGCTTAACTAG, the binding signal (log2 normalized intensity) was -1.3.

Turning to CATCATCTGTTTGTACGCGTCGAACTAGCT, the binding signal (log2 normalized intensity) is -1.29.

For AGGGTCTGGTTCCAAAGTCTGCAGATTAAA, the binding signal (log2 normalized intensity) was found to be 2.13.

For the sequence CTTAGAGATAATGGGGGAGCCACTGCAGCT, the binding signal (log2 normalized intensity) is -1.3.

With ATCTCACAGATTAAGTCACGTGGAGATAAC, the binding signal (log2 normalized intensity) stood at 0.759.

In the case of CAACTGGTATGTTAGATTAGTGTGCAGCTT, the binding signal (log2 normalized intensity) stood at 0.325.

On to ATTCAGCATTGCTTGGGAGCAGTCCTTGGG, for which the binding signal (log2 normalized intensity) was -0.959.

For AGAGGCACCAAGGCCGGAAAAGATTAGATT, the binding signal (log2 normalized intensity) was -0.767.

As to GAGAGAGAGAATAGCTCAGGTCCAAGGAAC, the binding signal (log2 normalized intensity) was -1.23.

On to GCACACTCGCCTGGCTCCCCACGTGGCAAT, for which the binding signal (log2 normalized intensity) is -1.36.

For CTCCACCTGGAGGGACTTTGTCCCACAGGA, the binding signal (log2 normalized intensity) was determined as 4.52.

Consider CGCCGCGGGCGCCCTGGTCTCTGCTACCTG, for which the binding signal (log2 normalized intensity) was -1.34.

On to GTGACCTTTGCTCCAGTTCCCAATAAGTTG, for which the binding signal (log2 normalized intensity) was 5.13.

With TGGCCCAAGGCCTCTGACATAAATCACATT, the binding signal (log2 normalized intensity) was -1.32.

For TCCAAGATCCAACTCTGAAGATTCACAGGT, the binding signal (log2 normalized intensity) is -1.26.

For ACAAGCAACCCTCCTCCCTTTGGCCATGAA, the binding signal (log2 normalized intensity) was found to be 1.33.

As for GCCCCTGGCTGGGCCCTGACCTCAAGTGAC, the binding signal (log2 normalized intensity) stood at 2.6.

As for GATGCCATTCCCTGCAGGTGAAACTCCAGG, the binding signal (log2 normalized intensity) is -1.31.

In the case of TTGTGCTAGAAAGAATGAGAAGGGCTAATA, the binding signal (log2 normalized intensity) is -0.86.

Take CATTGTTGGGATAAAATTCAACAGAGCTAT: the binding signal (log2 normalized intensity) was -1.36.

CCACTTACCACCCACAGAGGGGGTTTGTTT: the binding signal (log2 normalized intensity) is -1.12.

The record behind these values is article PMC10726135.
